Measured values from the RNAGym collection of RNA variant scans (doi:10.1093/nar/gkz1192).
The source gives no read counts; variants with many changes may rest on few reads.

B1: CPEB3 Ribozyme (parent)
chain: UAACAGGGGGCCACAGCAGAAGCGUUCACGUCGCAGCCCCUGUCAGAUUCUGGUGAAUCUGCGAAUUCUGCUGUAUAUCUC

Variants of: B1
Assay: self-cleavage, relative activity (ratio to wild type); higher = more cleavage; in vitro, sequencing
Method in brief: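 After error-prone PCR and barcoding, CPEB3 ribozyme mutant libraries were transcribed with T7 RNA polymerase at 37°C for 5 hours, then given 15 min with DNase I before an EDTA stop, and they cleaved during both steps. Reverse transcription with template switching preceded Illumina sequencing. Relative activity divides a variant's cleaved/total read fraction by the unmutated ribozyme's. At least 5 reads were required per variant, and three batches were averaged.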
With UAACAGGGGGCCACGGCAGAAGCGCUCACGUCGCAGCCCCUGUCAGAUUCUGGUGAAUCGGCGAAUUCUGCUGUAUAUCUC [A15G U25C U60G] the self-cleavage was 0.07. For UAACAGGGGGCCACGGCAGAAGCGCUCACGUCGCAGCCCCUGUCAGAUUCUGGUGAAUCUGCGAAUUCCGCUGUAUAUCUA [A15G U25C U69C C81A], the self-cleavage was 0.23. Work on UAACAGGGGGCCACGGCAGAAGCGUUCACAUCGCGGCCCCUGCCAGAUUCCGGUGAGUCUGCGAAUUCUGCUGUAUAUCUC [A15G G30A A35G U43C U51C A57G] yielded a self-cleavage of 0.13. For UAACAGGGGGCCACGGCAGAAGCAUUCACGUCGCAGCCCCUGUCAGAUUCUGGUGAAUCUGCGAAUUCUUCUGUAUAUCUC [A15G G24A G70U], the self-cleavage was 0.25. Work on UAACAGGGGGCCACGGCAGAAGCGCUCACGUCGCAGCCCCUGUCAGACUCUGGUGAGUUUGCGAAUUCUGCCGUAUAUCUC [A15G U25C U48C A57G C59U U72C] yielded a self-cleavage of 0.47. For UAACAGGGGGCCACGGCAGAAGCGAUCACGUCGCAGCCCCUGUCAGAUUCCGGUGAAUCUGCGAAUUCUGCAGUAUAUCUC [A15G U25A U51C U72A], the self-cleavage was 0.21. For UAACAGGGGGCCACGGCAGAAGCGCUCACGUCGCGGCCCCUGUCAGAUUCUGGUGAAUCUGCGAAUUCUGCUGUAUAUCUC [A15G U25C A35G], the self-cleavage was 0.31. Work on UAACAGGGGGCCACGGCAGAAGCGUUCACGUCGCAGCCCCUUCCAGGUUCUGGUGAACCUGCGAAUUCUGCUGUAUAUCUC [A15G G42U U43C A47G U58C] yielded a self-cleavage of 0.1. UAACAGGGGGCCACGGCAGAAGCGUUCACGUCGCAGCCCCUGUCAGAUUCUGGUGAAUCUGCUAAUUGUGCUGUAUAUCUC [A15G G63U C68G] showed a self-cleavage of 0.22. Variant UAACAGGGGGCCACGGCAGAAGCGUUCACAUCGCAGCCCCUGUCAGAUUCUGGUGAAUCUGCGGACUCUGCUGUAUAUCUC [A15G G30A A64G U66C] has a self-cleavage of 0.18. UAACAGGGGGCCACGGCAGAAGCGUUCACGUCACAGCCCCUGUCAGAUUCUGGCGAAUCUGCGAAUUCUGCGGUAUAUCUC [A15G G33A U54C U72G] gave a self-cleavage of 0.13. Work on UAACAGGGGGCCACGGCAGAAGCGCUCACGUCGCAGCCCCUGUCAGAUUCUGGCGAAUCUGCGAAUUCCGCUGUAUAUCUC [A15G U25C U54C U69C] yielded a self-cleavage of 0.38. Work on UAACAGGGGGCCACGGCAGAAGCGCUCACGUCGCGGCCCCUGUCAGAUUCUGGUGAAUCUGCGAAUACUGCUGUAUAUCAC [A15G U25C A35G U67A U80A] yielded a self-cleavage of 0.04. UAACAGGGGGCCACGGCAGAAGCGCUCACGUCGCAGCCCCUGUCGGAUUCUGGUGAGUCUGCGAAUUCCGCUGAAUAUCUC [A15G U25C A45G A57G U69C U74A] showed a self-cleavage of 0.03. With UAACAGGGGGCCACGGCAGAAGCGUUCACGUCGCAGCCCCUGUCAGAUUCUGCUGGAUCUGCGAAUUCUGCUGUAUAUCCC [A15G G53C A56G U80C] the self-cleavage was 0.81. Work on UAACAGGGGGCCACGGCAGAAGCGCUCACGUCGCAGCCCCCGUCAGAUUCUGGUGAGUCUGCGAAUUCUGCUGGAUAUCUC [A15G U25C U41C A57G U74G] yielded a self-cleavage of 0.13. For UAACAGGGGGCCACGGCAGAAGCGUUCACAUCGCAGCCCCAGUCGGAUUCUGGUGAAUCUGCGAAUUCUGCUGUAUAUCUC [A15G G30A U41A A45G], the self-cleavage was 0.07. In the case of UAACAGGGGGCCACGGCAGAAGCGCUAACGUCGCAGCCCCUGUCAGAUUCUGGUGAACCUGCGAAUUCUGCUGUAUAUCUC [A15G U25C C27A U58C], the self-cleavage is reported as 0.04. Variant UAACAGGGGGCCACGGCAGAAGCAUUCACGUCGCAGCCCCUGUCAGGUUCUGGUGAAUCUGCGAAUUCUGCUGUAUAUCUC [A15G G24A A47G] has a self-cleavage of 0.22. UAACAGGGGGCCACGGCAGAAGCGCCCACGUCGAAGCCCCUGCCAGAUUCUGGUGAAUCUGCGAACUCUGCUGUAUAUCUC [A15G U25C U26C C34A U43C U66C] showed a self-cleavage of 0.13. UAACAGGGGGCCACGGCAGAAGCGUUCACGUCGCAGCCCCUGUCAUAUUAUGGUGAAUCUGCGAAUUCUGCUGUCUAUCUC [A15G G46U C50A A75C] gave a self-cleavage of 0.32. UAACAGGGGGCCACGGCAGAAGCGAUCACGUCGCGGCCCCUGUCAGAUUCUGGUGAAUCUGCGAAUUCUGCUGUAUAUCUC [A15G U25A A35G] showed a self-cleavage of 0.33. Variant UAACAGGGGGCCACGGCAGAAGCGUUCACGUCUCGGCCCCUGUCGGAUUCUGGUGCAUCUGCGAAUUCAGCUGUAUAUCUC [A15G G33U A35G A45G A56C U69A] has a self-cleavage of 0.2. In the case of UAACAGGGGGCCACGGCAGAAGCGCUCACGUCGCAGCCCCUGUCCGAUUCUGGUGAAUCUGCGAAUUCUGCUGUAUAACUC [A15G U25C A45C U78A], the self-cleavage is reported as 0.15. Work on UAACAGGGGGCCACGGCAGAAACGUCCACAUCGCGGCCCCUGUCAGAUUCUGGUGAAUCUGCGAAUUCUGCCGUAUAUCUC [A15G G22A U26C G30A A35G U72C] yielded a self-cleavage of 0.05. Work on UAACAGGGGGCCACGGCAGAAGCGUUCACGUCGCAGCCCCUGUCAGAUUCUGGUCAAUCUGCGAAUUCUGCUGUAUGUCUC [A15G G55C A77G] yielded a self-cleavage of 1.15. UAACAGGGGGCCACGGCAGAAGCGCUCACGUCACAGCCCCUGUCGGAUUCCGGUGAAUCUGCGAAUUCUGAAGUAUAUCUC [A15G U25C G33A A45G U51C C71A U72A] showed a self-cleavage of 0.09. In the case of UAACAGGGGGCCACGGCAGAAGCGAACACGUCGCAGCGCCUGUCAGAUUCUGGUGAGUCUGCGAAUACUGCUGUAUAACUC [A15G U25A U26A C38G A57G U67A U78A], the self-cleavage is reported as 0.07. Variant UAACAGGGGGCCACGGCAGAAGCGAUCACGUCGCAGCCCCUGACAGAUUCUGGUGAAUCUGCGAAUUCUGCUGUAUAUCUC [A15G U25A U43A] has a self-cleavage of 0.13. With UAACAGGGGGCCACGGCAGAAGCAUUCACGUCGCAGCCCCUGUCAGAUUCCGGUGAAUCUGCGAAUUCUGCUGUAUAUCUC [A15G G24A U51C] the self-cleavage was 0.19. Work on UAACAGGGGGCCACGGCAGAAGCGCUCACGUCGCAGCCCCCGUCAGAUUCUGGUGAAUCUGCGAAUUGUGCCGUAUGUCUC [A15G U25C U41C C68G U72C A77G] yielded a self-cleavage of 0.06. UAACAGGGGGCCACGGCAGAAGCGCUCACGUCGCAGCCCCUGUCUGAUUCUGGUGAAUCUGCGAACUCUGCUGUAUAUCUC [A15G U25C A45U U66C] gave a self-cleavage of 0.17. In the case of UAACAGGGGGCCACGGCAGAAGCGUUCACAUCGCAGCCCCAGUCAGAUUCUGGUGGAUCUGCGAAUUCUGCUGUAUAUCUC [A15G G30A U41A A56G], the self-cleavage is reported as 0.26. With UAACAGGGGGCCACGGCAGAAGCGUUCACAUCGCAGCCCCCGUCAGAGUCUGGUGAAUCUGCGGAUUCUGCUGUAUAUCUC [A15G G30A U41C U48G A64G] the self-cleavage was 0.06.
